Assay in all cases: yeast fitness gain over the viral ORF with no human partner (scaled fitness); higher = more likely to interact
One assay has as its target SARS-CoV-2 E. As for the experimental part:
(§1)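 Split mouse DHFR complementation in pooled diploid yeast: human ORFeome clones carry one fragment and viral ORFs the other; barcoded lineages compete in 1 µg/mL methotrexate and fitness is read by barcode sequencing in up to three cultures.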

A further assay deals with SARS-CoV-2 N. As for the experimental part:
as §1

Another assay concerns the target SARS-CoV-2 NSP15. The protocol:
as §1

Another assay concerns the target SARS-CoV-2 NSP6. The protocol:
as §1

The next assay has as its target SARS-CoV-2 NSP9. The protocol: as §1
The target in a further assay is SARS-CoV-2 ORF3A. The protocol:
as §1

The next assay deals with SARS-CoV-2 M. The protocol: as §1
In a further assay the target is SARS-CoV-2 NSP1. The protocol: as §1
The target of another assay is SARS-CoV-2 NSP10. As for the experimental part: as §1
The target of another assay is SARS-CoV-2 NSP12. As for the experimental part: as §1
Another assay addresses SARS-CoV-2 NSP13. As for the experimental part: as §1
A further assay deals with SARS-CoV-2 NSP14. As for the experimental part: as §1
A further assay addresses SARS-CoV-2 NSP16. The protocol:
as §1

The next assay addresses SARS-CoV-2 NSP2. As for the experimental part: as §1
In a further assay the target is SARS-CoV-2 NSP4. The protocol: as §1
Another assay addresses SARS-CoV-2 NSP5. The protocol:
as §1

The target in another assay is SARS-CoV-2 NSP7. As for the experimental part: as §1
The next assay deals with SARS-CoV-2 NSP8. As for the experimental part: as §1
The target of another assay is SARS-CoV-2 ORF10. The protocol:
as §1

Another assay has as its target SARS-CoV-2 ORF3B. As for the experimental part:
as §1

The next assay concerns the target SARS-CoV-2 ORF6. The protocol:
as §1

The target of a further assay is SARS-CoV-2 ORF7A. The protocol: as §1
The next assay addresses SARS-CoV-2 ORF7B. As for the experimental part:
as §1

A further assay deals with SARS-CoV-2 ORF8. As for the experimental part: as §1
A further assay has as its target SARS-CoV-2 ORF9B. As for the experimental part:
as §1

Assay [1] deals with SARS-CoV-2 ORF9Bwu (the 73-codon ORF). The protocol:
as §1

The target of the next assay is SARS-CoV-2 S. As for the experimental part: as §1

Some of the results follow. Interaction screen of human proteins with wild-type SARS-CoV-2 proteins by split-DHFR complementation in yeast, 1 µg/mL methotrexate. Value = fitness of the pair (three or more lineages) minus that of the viral protein without a human partner, on a scale set by negative (0) and fused positive (1) controls, mean of up to three cultures; higher = more likely to interact. Active = false discovery rate below 0.05 (one-sided t-test) in at least one culture. Nearly all pairs are not hits, and differences among them are mostly noise (correlation between cultures about 0.3); most hits were seen in one culture only. Human sequences are the Swiss-Prot entries looked up by gene name; the clone may be another isoform. NSP2 values were corrected by the authors for a growth advantage. Listed are human proteins with a hit and a random twelfth of the others.

B1: KDELR1, P24390 (protein)
chain: MNLFRFLGDLSHLLAIILLLLKIWKSRSCAGISGKSQVLFAVVFTARYLDLFTNYISLYNTCMKVVYIACSFTTVWLIYSKFKATYDGNHDTFRVEFLVVPTAILAFLVNHDFTPLEILWTFSIYLESVAILPQLFMVSKTGEAETITSHYLFALGVYRTLYLFNWIWRYHFEGFFDLIAIVAGLVQTVLYCDFFYLYITKVLKGKKLSLPA
Consider B1, for which the yeast fitness gain in the assay with SARS-CoV-2 E is inactive: 0.14; in the assay with SARS-CoV-2 N, inactive: 0.094; with SARS-CoV-2 NSP15, inactive: 0.0312; with SARS-CoV-2 NSP6 it was inactive: -0.0625; in the assay with SARS-CoV-2 NSP9 it was inactive: -0.133; in the assay with SARS-CoV-2 ORF3A, inactive: -0.104.

B2: KCNJ12, Q14500 (protein)
chain: MTAASRANPYSIVSSEEDGLHLVTMSGANGFGNGKVHTRRRCRNRFVKKNGQCNIEFANMDEKSQRYLADMFTTCVDIRWRYMLLIFSLAFLASWLLFGIIFWVIAVAHGDLEPAEGRGRTPCVMQVHGFMAAFLFSIETQTTIGYGLRCVTEECPVAVFMVVAQSIVGCIIDSFMIGAIMAKMARPKKRAQTLLFSHNAVVALRDGKLCLMWRVGNLRKSHIVEAHVRAQLIKPRVTEEGEYIPLDQIDIDVGFDKGLDRIFLVSPITILHEIDEASPLFGISRQDLETDDFEIVVILEGMVEATAMTTQARSSYLANEILWGHRFEPVLFEEKNQYKIDYSHFHKTYEVPSTPRCSAKDLVENKFLLPSANSFCYENELAFLSRDEEDEADGDQDGRSRDGLSPQARHDFDRLQAGGGVLEQRPYRRESEI
Turning to B2, the yeast fitness gain with SARS-CoV-2 E was inactive: 0.0497; with SARS-CoV-2 M, inactive: 0.0682; with SARS-CoV-2 N it was inactive: -0.0482; with SARS-CoV-2 NSP1 it was inactive: -0.0629; with SARS-CoV-2 NSP10, inactive: 0.0209; with SARS-CoV-2 NSP12 it was inactive: 0.000294. For the same molecule, the yeast fitness gain with SARS-CoV-2 NSP13 is inactive: -0.0372; with SARS-CoV-2 NSP14, inactive: 0.128; with SARS-CoV-2 NSP15, inactive: -0.0597; with SARS-CoV-2 NSP16, inactive: -0.0504; with SARS-CoV-2 NSP2, inactive: -0.0183; with SARS-CoV-2 NSP4, inactive: 0.0428. In addition, the yeast fitness gain with SARS-CoV-2 NSP5 was inactive: -0.0126; with SARS-CoV-2 NSP6, inactive: 0.0161; with SARS-CoV-2 NSP7, inactive: -0.041; with SARS-CoV-2 NSP8, inactive: 0.000856; with SARS-CoV-2 NSP9, inactive: 0.0277; in the assay with SARS-CoV-2 ORF10, inactive: -0.0223. Moreover, the yeast fitness gain with SARS-CoV-2 ORF3A was inactive: 0.0237; with SARS-CoV-2 ORF3B, inactive: 0.053; with SARS-CoV-2 ORF6, inactive: 0.0184; with SARS-CoV-2 ORF7A it was inactive: -0.0321; in the assay with SARS-CoV-2 ORF7B it was inactive: 0.0694; in the assay with SARS-CoV-2 ORF8, inactive: 0.0479. The yeast fitness gain in the assay with SARS-CoV-2 ORF9B is inactive: 0.0663; in assay [1], inactive: -0.0598; with SARS-CoV-2 S it was inactive: -0.0374.

B3: HLA-DOB, P13765 (protein)
chain: MGSGWVPWVVALLVNLTRLDSSMTQGTDSPEDFVIQAKADCYFTNGTEKVQFVVRFIFNLEEYVRFDSDVGMFVALTKLGQPDAEQWNSRLDLLERSRQAVDGVCRHNYRLGAPFTVGRKVQPEVTVYPERTPLLHQHNLLHCSVTGFYPGDIKIKWFLNGQEERAGVMSTGPIRNGDWTFQTVVMLEMTPELGHVYTCLVDHSSLLSPVSVEWRAQSEYSWRKMLSGIAAFLLGLIFLLVGIVIQLRAQKGYVRTQMSGNEVSRAVLLPQSC
As to B3, the yeast fitness gain was inactive: 0.0202 with SARS-CoV-2 E; inactive: -0.0308 with SARS-CoV-2 M; inactive: 0.021 with SARS-CoV-2 N; inactive: -0.0179 with SARS-CoV-2 NSP1; inactive: 0.000708 with SARS-CoV-2 NSP10; inactive: 0.0308 with SARS-CoV-2 NSP12. In addition, the yeast fitness gain was inactive: 0.0176 in the assay with SARS-CoV-2 NSP13; inactive: -0.033 with SARS-CoV-2 NSP14; inactive: 0.0463 in the assay with SARS-CoV-2 NSP15; inactive: 0.107 with SARS-CoV-2 NSP16; inactive: -0.162 with SARS-CoV-2 NSP2; inactive: -0.127 with SARS-CoV-2 NSP4. In addition, the yeast fitness gain is inactive: 0.026 with SARS-CoV-2 NSP5; inactive: 0.0599 in the assay with SARS-CoV-2 NSP6; inactive: -0.02 in the assay with SARS-CoV-2 NSP7; inactive: -0.00401 with SARS-CoV-2 NSP8; inactive: -0.0829 with SARS-CoV-2 NSP9; inactive: 0.00165 with SARS-CoV-2 ORF10. In addition, the yeast fitness gain in the assay with SARS-CoV-2 ORF3A was inactive: -0.00466; with SARS-CoV-2 ORF3B, inactive: -0.0179; in the assay with SARS-CoV-2 ORF6, inactive: 0.0124; with SARS-CoV-2 ORF7A, inactive: 0.0787; in the assay with SARS-CoV-2 ORF7B, inactive: -0.0175; in the assay with SARS-CoV-2 ORF8, inactive: -0.0183. The yeast fitness gain with SARS-CoV-2 ORF9B is inactive: 0.0106; in assay [1], inactive: 0.0739; with SARS-CoV-2 S it was inactive: 0.0218.

B4: NCF2, P19878 (protein)
chain: MSLVEAISLWNEGVLAADKKDWKGALDAFSAVQDPHSRICFNIGCMYTILKNMTEAEKAFTRSINRDKHLAVAYFQRGMLYYQTEKYDLAIKDLKEALIQLRGNQLIDYKILGLQFKLFACEVLYNIAFMYAKKEEWKKAEEQLALATSMKSEPRHSKIDKAMECVWKQKLYEPVVIPVGKLFRPNERQVAQLAKKDYLGKATVVASVVDQDSFSGFAPLQPQAAEPPPRPKTPEIFRALEGEAHRVLFGFVPETKEELQVMPGNIVFVLKKGNDNWATVMFNGQKGLVPCNYLEPVELRIHPQQQPQEESSPQSDIPAPPSSKAPGRPQLSPGQKQKEEPKEVKLSVPMPYTLKVHYKYTVVMKTQPGLPYSQVRDMVSKKLELRLEHTKLSYRPRDSNELVPLSEDSMKDAWGQVKNYCLTLWCENTVGDQGFPDEPKESEKADANNQTTEPQLKKGSQVEALFSYEATQPEDLEFQEGDIILVLSKVNEEWLEGECKGKVGIFPKVFVEDCATTDLESTRREV
Turning to B4, the yeast fitness gain was inactive: -0.0364 with SARS-CoV-2 E; inactive: -0.00683 with SARS-CoV-2 NSP10; inactive: -0.0104 with SARS-CoV-2 NSP12; inactive: 0.0463 with SARS-CoV-2 NSP13; inactive: -0.16 with SARS-CoV-2 NSP15; active: 0.626 with SARS-CoV-2 NSP2. In addition, the yeast fitness gain was inactive: -0.0209 with SARS-CoV-2 NSP5; inactive: -0.325 with SARS-CoV-2 NSP7; inactive: -0.046 with SARS-CoV-2 NSP8; inactive: -0.0167 with SARS-CoV-2 ORF10; inactive: -0.172 with SARS-CoV-2 ORF3A; inactive: -0.0877 with SARS-CoV-2 ORF3B. Moreover, the yeast fitness gain is inactive: -0.0271 with SARS-CoV-2 ORF6; inactive: -0.606 in the assay with SARS-CoV-2 ORF7A; inactive: -0.0421 with SARS-CoV-2 ORF9B; inactive: -0.108 in assay [1]; inactive: -0.133 with SARS-CoV-2 S.

The values above are taken from the supplement of paper PMC11741623.
